# Laboratory results: the supplement of paper PMC9135407
# Values joined by “and” are separate entries in the source; they are usually repeats but may differ in a detail not shown here. Identical values can stand only once. Counter-ions that a name gives are not always drawn. About 620 (11%) of roughly 5,800 compounds showed activity.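 The calls were made as follows: active = score above a cut-off or among the top three wells of a plate; in these data no inactive exceeds 0.85.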 The list shows a part of the results, in another mix than the full data.
# Test system: primary human hepatic stellate cells (donor 1)
# Assay: scaled lipid accumulation score (0 = DMSO-like, 1 = nortriptyline-like); higher = stronger HSC inactivation (lipid re-accumulation), active = hit call of the paper
# Details: 48 h
# [1] = library stock concentration: 3.33 mM
# [2] = library stock concentration: 10 mM
smiles,measurement,setting,value
O=C(O)c1ccc(-c2c[nH]c3ncc(-c4ccccc4)cc23)cc1C1CCCC1,scaled lipid accumulation score,[1],inactive: ≤ -0.009
same,scaled lipid accumulation score,[2],inactive: 0.079 and inactive: ≤ -0.001
C[C@H](O)[C@H](O)[C@@H](O)[C@@H](O)C=O [L-(+)-Rhamnose Monohydrate],scaled lipid accumulation score,[1],inactive: ≤ 0
same,scaled lipid accumulation score,[2],inactive: ≤ 0
CN1CCc2cc(Cl)c(O)cc2[C@@H](c2ccccc2)C1,scaled lipid accumulation score,library stock concentration: 9.9 mM,inactive: ≤ 0
same,scaled lipid accumulation score,[2],inactive: 0.251 and inactive: 0.216
Nc1ccc(N2C(=O)c3ccccc3C2=O)c(Cl)c1 [N-(4-Amino-2-chlorophenyl)phthalimide],scaled lipid accumulation score,[2],inactive: 0.089
CC(=O)Oc1ccccc1C(=O)O [Aspirin],scaled lipid accumulation score,[1],inactive: ≤ 0
same,scaled lipid accumulation score,[2],inactive: ≤ 0
CC(=O)Oc1ccccc1C(=O)O [Acetylsalicylic acid],scaled lipid accumulation score,[2],inactive: 0.006
O=C(O)[C@H]1NCCC[C@H]1C(=O)O,scaled lipid accumulation score,[2],inactive: ≤ 0
CCCCCCOC(=O)[C@]1(O)C[C@@H]2O[C@@]1(C)n1c3ccccc3c3c4c(c5c6ccccc6n2c5c31)C(=O)NC4,scaled lipid accumulation score,library stock concentration: 900 uM,inactive: 0.034
same,scaled lipid accumulation score,[1],inactive: ≤ 0
CNS(=O)(=O)CCc1ccc2[nH]cc(C3CCN(C)CC3)c2c1 [Naratriptan],scaled lipid accumulation score,[1],inactive: ≤ 0
same,scaled lipid accumulation score,[2],inactive: ≤ 0
CNS(=O)(=O)CCc1ccc2[nH]cc(C3CCN(C)CC3)c2c1 [Naratriptan hydrochloride],scaled lipid accumulation score,[2],inactive: 0.019
CCCCCCCC/C=C\CCCCCCCC(=O)NCC(=O)O [N-Oleoyl Glycine],scaled lipid accumulation score,library stock concentration: 1 mM,inactive: 0.029
COc1ccc2ccc(=O)oc2c1CC=C(C)C [Osthole],scaled lipid accumulation score,[1],inactive: ≤ 0
same,scaled lipid accumulation score,[2],inactive: ≤ 0
O=C(Nc1nc2cccc(-c3ccc(CN4CCS(=O)(=O)CC4)cc3)n2n1)C1CC1 [Filgotinib (GLPG0634)],scaled lipid accumulation score,[1],inactive: ≤ -0.009
same,scaled lipid accumulation score,[2],inactive: 0.119
O=C(Nc1nc2cccc(-c3ccc(CN4CCS(=O)(=O)CC4)cc3)n2n1)C1CC1 [Filgotinib],scaled lipid accumulation score,library stock concentration: 80 uM,inactive: ≤ 0
same,scaled lipid accumulation score,library stock concentration: 400 uM,inactive: ≤ 0
same,scaled lipid accumulation score,library stock concentration: 2 mM,inactive: 0.007
same,scaled lipid accumulation score,[2],inactive: 0.289
N=C(N)NS(=O)(=O)c1ccc(N)cc1 [Sulfaguanidine],scaled lipid accumulation score,,inactive: ≤ 0
same,scaled lipid accumulation score,[1],inactive: ≤ 0
same,scaled lipid accumulation score,library stock concentration: 9.3 mM,inactive: ≤ 0
same,scaled lipid accumulation score,[2],inactive: ≤ -0.001 and inactive: ≤ 0
C[C@]12CC[C@H](O)CC1=CC[C@@H]1[C@@H]2CC[C@]2(C)C(n3cnc4ccccc43)=CC[C@@H]12 [Galeterone],scaled lipid accumulation score,[1],inactive: 0.137
NC[C@@H]1CC[C@@H](N)[C@@H](O[C@H]2[C@H](O)[C@@H](O[C@H]3O[C@H](CO)[C@@H](O)[C@H](N)[C@H]3O)[C@H](N)C[C@@H]2N)O1 [Dibekacin],scaled lipid accumulation score,[2],inactive: 0.108
